Laboratory results as given in the GPR68 mutational scans of Howard et al. (2025).

B1: GPR68, Q15743 (parent)
chain: MGNITADNSSMSCTIDHTIHQTLAPVVYVTVLVVGFPANCLSLYFGYLQIKARNELGVYLCNLTVADLFYICSLPFWLQYVLQHDNWSHGDLSCQVCGILLYENIYISVGFLCCISVDRYLAVAHPFRFHQFRTLKAAVGVSVVIWAKELLTSIYFLMHEEVIEDENQHRVCFEHYPIQAWQRAINYYRFLVGFLFPICLLLASYQGILRAVRRSHGTQKSRKDQIQRLVLSTVVIFLACFLPYHVLLLVRSVWEASCDFAKGVFNAYHFSLLLTSFNCVADPVLYCFVSETTHRDLARLRGACLAFLTCSRTGRAREAYPLGAPEASGKSGAQGEEPELLTKLHPAFQTPNSPGSGGFPTGRLA

Columns and labels:
[1] = variants of: B1; experiment: cAMP reporter score (Enrich2 score, wild type = 0); higher = more signal; HEK293T, FACS bins
[2] = variants of: B1; experiment: surface expression score (Enrich2 score, wild type = 0); higher = more signal; HEK293T, FACS bins

Variant | cAMP reporter score ([1]; pH 5.5) | cAMP reporter score ([1]; pH 6) | cAMP reporter score ([1]; pH 6, modulator: ogerin) | cAMP reporter score ([1]; pH 6.5, modulator: ogerin) | surface expression score [2]
L308C | 0.019 | -0.313 | 0.33 | 0.348 | -0.163
L308V | 0.418 | 0.233 | 1.04 | 0.129 | 0.582
L308P | -0.489 | 0.753 | 0.032 | -0.787 | 0.169
L308D | -0.086 | -0.442 | -0.14 | -0.665 | -0.365
L308A | 0.88 | -0.135 | 1.05 | 0.05 | 0.201
L308M | 0.472 | 0.779 | -0.03 | 0.348 | 0.029
L308S | -0.248 | 0.056 | -0.254 | 0.154 | -0.391
L308K | 0.473 | 0.919 | 0.436 | -0.21 | 0.252
L308H | 0.003 | -0.501 | 0.204 | 0.141 | -0.339
L308Y | -0.284 | 0.03 | 0.253 | -0.384 | -0.958
R299_L300del | -0.743 | -0.297 | -1.31 | -0.414 | -0.633
S311_R312insG | -0.841 | -0.246 | -0.901 | -0.409 | -1.28
C310_S311insG | 1.46 | 0.178 | 1.11 | 1.66 | 1.12
G302_A303insGS | 0.297 | -0.249 | 0.384 | -0.336 | -0.856
L322_G323del | -0.68 | 1.23 | -0.935 | -0.166 | -0.125
L297R | 0.058 | -0.6 | -1.02 | -1.38 | 0.057

Variant | cAMP reporter score ([1]; pH 5.5) | cAMP reporter score ([1]; pH 6) | cAMP reporter score ([1]; pH 6, modulator: ogerin) | cAMP reporter score ([1]; pH 6.5, modulator: ogerin) | surface expression score [2]
L297P | -1.18 | -0.712 | -1.06 | -1.21 | -0.176
L297W | 0.282 | -0.951 | 0.635 | 0.117 | 1.07
L297T | -0.348 | -1.42 | -1.03 | -0.565 | 0.265
L297S | 0.196 | -0.877 | -0.195 | -0.609 | -0.369
L297Q | -1.3 | -0.675 | -1.11 | -1.27 | -0.159
L297Y | 0.662 | -0.916 | -0.239 | -0.326 | -0.828
L297V | 0.376 | -1.44 | 0.343 | -0.857 | 0.594
P321_G323del | -0.939 | 0.273 | -0.292 |  | 
E326_S328del | 0.276 | 0.137 | 0.841 | 0.092 | -0.223
Y320del | -0.08 |  | -0.073 | 0.79 | 0.774
T309_S311del | 0.659 | 0.825 | 0.599 | 0.955 | 0.026
E318del | 0.621 | 0.091 | 0.518 | -0.5 | 0.278
G302del | 1.27 | -0.211 | 0.632 | 0.138 | 0.174
R315_A316insGS | -0.525 | 0.393 | -0.698 | -0.461 | -0.178
L305_A306insGSG | 1.18 | -0.595 | 0.965 | 0.152 | -0.131

The least precise scores are not listed. Two further conditions of the source, in which the scores hardly spread, are not listed. Read del as a deletion of the residues named and ins as an insertion between two positions. For some assays here: How much ogerin was present is not stated here.
